Screen size: about 350,000 compounds; about 31,000 (8.9%) were called active. This list was built around the results that the source calls inconclusive (neither active nor inactive); the mix of calls is not that of the screen. Calls come from the whole dose curve; as a rule, active = well fitted inhibition curve with a large enough effect; inconclusive = small, poorly fitted or top-dose-only effect; inactive = no such curve, though single readings can be large or run the other way. A potency beside an inconclusive call is a rough fit, not a confirmed value.
Target: Histone-lysine N-methyltransferase EHMT2 (Homo sapiens) (UniProt Q96KQ7)
Chain of UniProt Q96KQ7 (Q96KQ7 whole entry, looked up): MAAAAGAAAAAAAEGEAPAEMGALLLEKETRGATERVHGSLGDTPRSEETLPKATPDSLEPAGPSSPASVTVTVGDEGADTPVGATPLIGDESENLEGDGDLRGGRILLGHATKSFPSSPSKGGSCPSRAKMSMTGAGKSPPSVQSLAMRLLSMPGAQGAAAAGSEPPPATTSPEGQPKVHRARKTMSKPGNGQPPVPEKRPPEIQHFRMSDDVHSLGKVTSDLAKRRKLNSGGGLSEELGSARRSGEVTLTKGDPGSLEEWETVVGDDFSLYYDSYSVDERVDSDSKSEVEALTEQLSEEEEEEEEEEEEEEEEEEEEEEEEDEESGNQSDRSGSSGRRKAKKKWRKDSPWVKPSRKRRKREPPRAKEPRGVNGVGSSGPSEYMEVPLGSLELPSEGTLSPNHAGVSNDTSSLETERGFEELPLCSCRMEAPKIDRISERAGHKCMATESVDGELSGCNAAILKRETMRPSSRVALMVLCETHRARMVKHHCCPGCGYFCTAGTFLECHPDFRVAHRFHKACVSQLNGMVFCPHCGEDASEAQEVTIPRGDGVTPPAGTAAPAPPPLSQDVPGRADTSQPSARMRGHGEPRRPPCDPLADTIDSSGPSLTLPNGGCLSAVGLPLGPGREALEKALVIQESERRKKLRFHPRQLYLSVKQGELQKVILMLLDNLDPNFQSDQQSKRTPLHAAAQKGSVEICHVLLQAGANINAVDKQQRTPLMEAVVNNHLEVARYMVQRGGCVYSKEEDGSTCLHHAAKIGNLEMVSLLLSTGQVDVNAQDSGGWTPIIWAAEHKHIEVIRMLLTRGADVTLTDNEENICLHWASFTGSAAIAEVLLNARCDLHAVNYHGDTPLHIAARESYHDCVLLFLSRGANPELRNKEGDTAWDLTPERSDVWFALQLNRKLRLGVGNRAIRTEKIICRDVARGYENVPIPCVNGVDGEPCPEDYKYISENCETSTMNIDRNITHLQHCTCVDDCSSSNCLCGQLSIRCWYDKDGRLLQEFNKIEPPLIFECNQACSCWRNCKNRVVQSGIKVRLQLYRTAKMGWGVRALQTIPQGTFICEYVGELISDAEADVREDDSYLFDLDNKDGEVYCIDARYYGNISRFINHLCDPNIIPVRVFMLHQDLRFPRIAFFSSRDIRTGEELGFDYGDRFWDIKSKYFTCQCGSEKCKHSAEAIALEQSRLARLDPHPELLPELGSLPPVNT
Assay: qHTS Assay for Inhibitors of Histone Lysine Methyltransferase G9a; note: nearly all actives have a fitted effect of over 75% in size
Conditions: G9a H3K9 monomethylation, AlphaScreen, 2 h; activity, negative = inhibition: at 59 µM (top of the series) unless noted
Method in brief: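 Signal arises when biotinylated H3K9 peptide, once monomethylated, bridges streptavidin donor and antibody-captured acceptor beads. Enzyme at 20 nM was preincubated 15 min with test compounds; peptide 500 nM and SAM 20 uM then reacted for 2 h.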
% is set by controls: 0 for no effect and ±100 for the full control effect; potency is the fitted concentration of half-maximal effect; tags give direction and shape of the fitted curve.

**Q.** O=C(CSc1nnc(-c2ccco2)n1Cc1ccccc1)NC(=O)NCc1ccccc1 was tested. Which Potency did it give?
**A.** inconclusive: 79.4 µM [inhibitor, single point]

**Q.** CCCS(=O)(=O)N1CCN(Cc2ccccc2[N+](=O)[O-])CC1 was tested. Which Potency did it give?
**A.** active: 25.1 µM

**Q.** How did the Potency turn out when CCCCCN1C=CC=C/C1=C\C=C(C#N)C#N was run?
**A.** inconclusive: 25.1 µM [inhibitor, full curve]

**Q.** For COc1ccc(CCN2CC(C(=O)N(C)Cc3ccc(C)o3)CCC2=O)cc1 (centres undefined), which Potency is on record?
**A.** inconclusive: 35.5 µM [inhibitor, full curve, poor fit]

**Q.** COc1ccc(NS(=O)(=O)c2cc(NC(=O)c3cnccn3)ccc2N2CCCC2)cc1 was tested. Which Potency did it give?
**A.** inconclusive: 28.2 µM [inhibitor, single point]

**Q.** For Cc1ccc(S(=O)(=O)c2nc(-c3cccc(Cl)c3)oc2NCc2ccccc2)cc1, which Potency is on record?
**A.** inconclusive: 5.01 µM [inhibitor, partial curve]

**Q.** Which Potency does the source give for CCN1CCN(c2nnc(-c3ccc(F)cc3)c3ccccc23)CC1 here?
**A.** inconclusive: 79.4 µM [inhibitor, single point]

**Q.** How did the Potency turn out when O=C(c1cccc(COc2cccc3ccccc23)c1)N1CCCC1 was run?
**A.** inconclusive: 20 µM [inhibitor, single point]

**Q.** How did the “activity, negative = inhibition” value turn out when Cc1nnc(N2CCCC(C(=O)NCCc3ccccc3)C2)c2nn(-c3ccccc3)c(C)c12 (centres undefined) was run?
**A.** inactive: -5.07%

**Q.** For Cc1cccc(NC(=O)c2nc(S(=O)(=O)Cc3ccccc3)ncc2Cl)c1, which Potency is on record?
**A.** active: 39.8 µM

**Q.** With CCOC(=O)N1CCC(=NNc2nc(C)cc(=O)[nH]2)CC1 as the molecule, how does the Potency read?
**A.** active: 39.8 µM

**Q.** O=[N+]([O-])c1ccc(N2CCN(S(=O)(=O)c3ccccc3)CC2)cc1NCc1ccco1 was tested. Which “activity, negative = inhibition” value did it give?
**A.** inactive: -41.1%

**Q.** How did the Potency turn out when Cc1ccc(/C=C(\C#N)C(=O)NCc2ccco2)o1 was run?
**A.** inconclusive: 56.2 µM [inhibitor, partial curve, poor fit]

**Q.** With COc1cccc(C(c2ccccc2)N2C3CCC2CN(S(=O)(=O)c2ccc(F)cc2)CC3)c1 (centres undefined) as the molecule, how does the Potency read?
**A.** inconclusive: 1.12 µM [inhibitor, full curve]

**Q.** How did the Potency turn out when O=C(Nc1ccc(C2=NCCN2)cc1)c1ccc(C(=O)Nc2ccc(C3=NCCN3)cc2)c([N+](=O)[O-])c1 was run?
**A.** active: 39.8 µM

**Q.** With Cc1ccc(S(=O)(=O)c2nc(-c3ccc(F)cc3)oc2N2CCOCC2)cc1 as the molecule, how does the Potency read?
**A.** active: 35.5 µM

**Q.** Which “activity, negative = inhibition” value does the source give for O=[N+]([O-])c1c(Nc2ccccc2)ccc2nonc12 here?
**A.** inactive: -12%

**Q.** Which Potency does the source give for COc1ccc(N2CCN(C(=O)Cc3ccc(Cl)cc3)CC2)cc1 here?
**A.** active: 50.1 µM

**Q.** How did the Potency turn out when COc1ccc(OCc2cc(C(=O)N3CCCC(CO)C3)no2)c2ccccc12 (centres undefined) was run?
**A.** inconclusive: 79.4 µM [inhibitor, single point]

Source: PubChem BioAssay AID504332 (National Center for Advancing Translational Sciences (NCATS), 2011)
